Consider twelve compounds from PubChem BioAssay (NCATS).

Test [1] in a line: qHTS drug screen for cell cycle checkpoint inhibitors in PARPi-resistant BRCA-mutant ovarian cancer cell lines. (AID 1963452). To be noted: PEO1/OlaR viability, CellTiter-Glo luminescence, 96 h. In short, it runs like this:
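PEO1, PEO4 and PEO1/OlaR ovarian cancer cells, 600 per well, exposed 96 h at 37C to a dilution series. Viability read by CellTiter-Glo luminescence, normalized to DMSO and empty wells; activity summarized as Z-AUC.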
(qHTS replaces the single test concentration by a dilution series.)

The nature of test [2]: qHTS for identification of novel therapeutic agents for treatment of microphthalmiaassociated transcription factor (MiT) renal cell carcinoma (RCC) (AID 1963991). The following applies: CellTiter-Glo, 48 h; for z-score: stronger effect = lower value. The method in brief: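 Curves over 11 concentrations were fitted to CellTiter-Glo luminescence, scaled between empty wells (0%) and DMSO (100%) viability. Cells were UOK109, UOK124 and UOK145 TFE3-fusion RCC lines at 500/well, exposed 48 hours at 37 C.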

[3] abbreviates: measured here: PEO1 parental viability.
The mark [4] stands for this setting: TFE3-RCC UOK109 viability, measured here: UOK109 Z-AUC.
[5] abbreviates: TFE3-RCC viability, measured here: UOK124 Z-AUC.
Where [6] appears, read: TFE3-RCC viability, measured here: UOK124 cell viability.
[7] abbreviates: TFE3-RCC viability, measured here: UOK145 Z-AUC.
[8] abbreviates: TFE3-RCC viability, measured here: UOK145 cell viability.

Values joined by “and” are separate entries in the source; they are usually repeats but may differ in a detail not shown here. Equal values may be shown once. Some of the results follow. The main result of the screen is listed elsewhere. These columns were measured beside it and carry no call. For part of these data: Most of these compounds were active or inconclusive in the main read-out, so they are no random draw. The note in brackets gives the kind of curve behind each potency; many fits are weak.
Tags describe the fitted curve by direction and shape.

The AC50 is the midpoint of the concentration-response curve, whichever way the signal moves. On to `CSc1cccc(Nc2ncc3cc(-c4c(Cl)cccc4Cl)c(=O)n(C)c3n2)c1`, for which the concentration at half-maximal activity (AC50) in test [1] (setting [3]) was 15.5 µM [falling, partial curve]; in test [1] (measured here: PEO4 viability) it was 19.5 µM [falling, single point]; in test [2] (setting [6]), 0.187 µM [falling, full curve]; in test [2] (setting [8]) it was 0.418 µM [falling, full curve]. The figures for the z-score in test [2] (setting [4]), in test [2] (setting [5]) and in test [2] (setting [7]) were -0.759, -0.958 and -0.511, respectively.
Consider `O=C1[C@H](Cc2ccc(O)cc2)N2C(=O)CCN(C(=O)NCc3ccccc3)[C@H]2CN1Cc1cccc2ccccc12`, for which the AC50 was 3.89 µM [falling, full curve] in test [1] (setting [3]); 3.89 µM [falling, partial curve] in test [1] (measured here: PEO4 viability); 10.5 µM [falling, partial curve] in test [2] (setting [6]); 13.2 µM [falling, partial curve] in test [2] (setting [8]). The z-score was -0.137 in test [2] (setting [4]), 0.107 in test [2] (setting [5]) and -0.478 in test [2] (setting [7]).
Regarding `O=C(CC12CC3CC(CC(C3)C1)C2)Nc1cccc2nc(NCCNCCO)ccc12`, the AC50 in test [1] (setting [3]) was 24.5 µM [falling, single point]; in test [1] (measured here: PEO4 viability), 24.5 µM [falling, single point]; in test [2] (setting [6]), 33.2 µM [falling, single point]; in test [2] (setting [8]), 33.2 µM [falling, single point]. Moreover, the z-score in test [2] (setting [4]) is -0.124; in test [2] (setting [5]) it was -0.112; in test [2] (setting [7]), -0.115.
Turning to `COc1ccc2c(c1)c(C1=C(c3c[nH]c4ccccc34)C(=O)NC1=O)cn2CCCN(C)C`, the concentration at half-maximal activity (AC50) in test [1] (setting [3]) was 3.47 µM [falling, partial curve]; in test [1] (measured here: PEO4 viability), 15.5 µM [falling, partial curve]; in test [2] (setting [6]), 16.6 µM [falling, partial curve]; in test [2] (setting [8]), 23.5 µM [falling, partial curve]. The z-score is -0.00317 in test [2] (setting [4]), -0.748 in test [2] (setting [5]) and 0.28 in test [2] (setting [7]).
Consider `NC(=O)Nc1cc(-c2ccc(CN3CCOCC3)cc2)sc1C(N)=O`, for which the AC50 in test [1] (setting [3]) was 6.16 µM [falling, partial curve]; in test [1] (measured here: PEO4 viability), 1.55 µM [falling, full curve]; in test [2] (setting [6]) it was 18.7 µM [falling, partial curve]; in test [2] (setting [8]) it was 18.7 µM [falling, partial curve]. For the same compound, the z-score in test [2] (setting [4]) came to 0.63; in test [2] (setting [5]), 0.435; in test [2] (setting [7]), 0.225.
For `CN1CCN(Cc2ccc(NC(=O)Nc3ccc(Oc4cc(NC(=O)C5CC5)ncn4)cc3)cc2C(F)(F)F)CC1`, the AC50 was 0.0436 µM [falling, full curve] in test [1] (setting [3]); 0.0174 µM [falling, full curve, poor fit] in test [1] (measured here: PEO4 viability); 3.32 µM [falling, partial curve, poor fit] in test [2] (setting [6]); 1.66 µM [falling, full curve] in test [2] (setting [8]). In addition, the z-score is -0.521 in test [2] (setting [4]), -2 in test [2] (setting [5]) and -2.03 in test [2] (setting [7]).
As for `O=C(NC1CCNCC1)c1[nH]ncc1NC(=O)c1c(Cl)cccc1Cl`, the concentration at half-maximal activity (AC50) was 0.692 µM [falling, full curve] in test [1] (setting [3]); 0.436 µM [falling, full curve] in test [1] (measured here: PEO4 viability); 1.48 µM [falling, full curve] in test [2] (setting [6]); 0.935 µM [falling, full curve] in test [2] (setting [8]). The z-score in test [2] (setting [4]) was -0.835; in test [2] (setting [5]), -0.45; in test [2] (setting [7]), -1.27.
As for `COc1cccc2c1C(=O)c1c(O)c3c(c(O)c1C2=O)C[C@@](O)(C(=O)CO)C[C@@H]3O[C@H]1C[C@H](N)[C@H](OC2CCCCO2)[C@H](C)O1` (some centres undefined), the AC50 in test [1] (setting [3]) was 1.95 µM [falling, partial curve, poor fit] and 155 nM [falling, full curve]; in test [1] (measured here: PEO4 viability), 13.8 µM [falling, partial curve] and 436 nM [falling, full curve]; in test [2] (setting [6]), 1.18 µM [falling, full curve]; in test [2] (setting [8]), 2.64 µM [falling, full curve]. Moreover, the z-score in test [2] (setting [4]) is -0.146; in test [2] (setting [5]), -0.744; in test [2] (setting [7]), -0.401.
`CCOc1cc(N2CCC(O)CC2)ccc1Nc1ncc2c(n1)N(C)c1ccccc1C(=O)N2C`: the AC50 is 24.5 µM [falling, single point] in test [1] (setting [3]); 13.8 µM [falling, partial curve] in test [1] (measured here: PEO4 viability); 1.87 µM [falling, partial curve] in test [2] (setting [6]); 1.48 µM [falling, full curve] in test [2] (setting [8]). Further, the z-score was 0.105 in test [2] (setting [4]), -1.03 in test [2] (setting [5]) and -0.017 in test [2] (setting [7]).
For `O=C(Nc1nnc(-c2ccco2)o1)c1cc(-c2ccccc2)nc2ccccc12`, the half-maximal activity concentration (AC50) was 6.16 µM [falling, partial curve, poor fit] in test [1] (setting [3]); 3.47 µM [falling, full curve, poor fit] in test [1] (measured here: PEO4 viability); 16.6 µM [falling, partial curve] in test [2] (setting [6]); 20.9 µM [falling, single point] in test [2] (setting [8]). Besides, the values for the z-score in test [2] (setting [4]), in test [2] (setting [5]) and in test [2] (setting [7]) were 0.273, 0.214 and 0.642, respectively.
As for `COc1cc(-c2nn(C3CCC(N4CCN(C(C)=O)CC4)CC3)c3ncnc(N)c23)ccc1NC(=O)c1cc2ccccc2n1C` (centres undefined), the AC50 in test [1] (setting [3]) was 15.5 µM [falling, partial curve]; in test [1] (measured here: PEO4 viability), 13.8 µM [falling, single point]; in test [2] (setting [6]) it was 1.18 µM [falling, partial curve, poor fit]; in test [2] (setting [8]), 1.48 µM [falling, full curve]. Besides, the figures for the z-score in test [2] (setting [4]), in test [2] (setting [5]) and in test [2] (setting [7]) were -1.13, -0.0955 and -0.666, respectively.
In the case of `Cn1c(=O)c(F)c(Nc2ccc(I)cc2F)c2c(=O)n(C[C@@H](O)CO)cnc21`, the AC50 was 0.49 µM [falling, full curve, poor fit] in test [1] (setting [3]); 0.0309 µM [falling, full curve, poor fit] in test [1] (measured here: PEO4 viability); 18.7 µM [falling, partial curve] in test [2] (setting [6]); 18.7 µM [falling, partial curve] in test [2] (setting [8]). For the same compound, the results for the z-score in test [2] (setting [4]), in test [2] (setting [5]) and in test [2] (setting [7]) were -2.15, -0.612 and -0.169, respectively.
